About 230 (0.21%) of roughly 110,000 compounds showed an effect of 50% or more. The list shows a part of the results.
molecular target: DPAP1 (Plasmodium falciparum, UniProt Q8IIJ9); assay: primary screen, percent inhibition; read by cleavage of a fluorogenic dipeptide substrate; higher = more effect of the substance; set-up: species or system P. falciparum D10 trophozoite lysates; single well
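Note: 30 min substrate incubation versus DMSO and 10 µM JCP410 controls.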

Sequence of DPAP1 (Q8IIJ9 whole entry, looked up): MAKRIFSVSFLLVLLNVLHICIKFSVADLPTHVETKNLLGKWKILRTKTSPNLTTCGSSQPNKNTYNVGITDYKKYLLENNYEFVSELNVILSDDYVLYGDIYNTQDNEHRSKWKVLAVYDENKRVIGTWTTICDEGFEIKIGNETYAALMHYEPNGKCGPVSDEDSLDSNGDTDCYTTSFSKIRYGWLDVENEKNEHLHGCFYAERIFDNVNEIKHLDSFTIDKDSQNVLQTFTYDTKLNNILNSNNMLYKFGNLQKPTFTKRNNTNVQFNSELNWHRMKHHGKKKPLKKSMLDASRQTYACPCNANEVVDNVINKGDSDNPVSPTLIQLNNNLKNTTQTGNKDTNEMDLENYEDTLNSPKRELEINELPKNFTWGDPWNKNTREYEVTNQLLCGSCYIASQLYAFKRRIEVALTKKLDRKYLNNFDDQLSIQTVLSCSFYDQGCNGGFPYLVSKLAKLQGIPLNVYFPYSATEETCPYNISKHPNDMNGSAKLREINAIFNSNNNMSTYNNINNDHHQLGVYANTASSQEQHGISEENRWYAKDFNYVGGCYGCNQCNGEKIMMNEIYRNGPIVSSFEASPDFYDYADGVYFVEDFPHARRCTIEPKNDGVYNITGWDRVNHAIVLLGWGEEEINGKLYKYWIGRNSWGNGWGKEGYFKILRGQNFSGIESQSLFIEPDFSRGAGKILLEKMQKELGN

Compound	% Inhibition @ 10 uM
CCOc1ccc(CN(C(=O)c2nc(S(C)(=O)=O)ncc2Cl)C2CCS(=O)(=O)C2)cc1 (stereo not drawn)	-1.11%
Cc1nnc(N2CCC(C(=O)NCc3cccnc3)CC2)c2nn(-c3ccccc3)c(C)c12	-4.57%
c1cnc2c(Cc3c[nH]c4cccnc34)c[nH]c2c1	0.266%
CCC(C)C(=O)Nc1ccc(NC(=O)c2cccs2)cc1 (stereo not drawn)	0.512%
CCCCC(=O)Nc1sc2c(c1C#N)CC(C)(C)NC2(C)C	0.726%
O=P(O)(O)Cc1ccccc1OP(=O)(c1ccccc1)c1ccccc1	-1.93%
CS(=O)(=O)c1nc(S(=O)(=O)c2ccc(Cl)cc2)c(NCCCN2CCCC2=O)s1	1.15%
COc1ccc(C(CC(=O)O)NC(=O)c2ccc(F)cc2)cc1 (stereo not drawn)	3.6%
COc1ccc(-c2noc(CN(C(=O)c3ccc(C)c(C)c3)C(C)C)n2)cc1	-1.84%
CC(=O)C1=C(C)Nc2nnnn2C1c1ccc(Cl)cc1 (stereo not drawn)	0.0842%
O=C(NCCCN1CCOCC1)C1CC(c2cccc(Br)c2)=NO1 (stereo not drawn)	0.221%
C=CCNc1oc(-c2ccccc2)nc1C#N	2.17%
CCOCC(=O)Nc1cc(C)on1	-7.38%
Cc1ccc2nc3c(cc(C(N)=O)c(=N)n3CCc3ccccc3)c(=O)n2c1	8.18%
CCCOc1ccc(C2C3=C(CCCC3=O)OC3=C2C(=O)CCC3)cc1	5.94%
CN1CCN(Cc2cccc(F)c2)CC1	-0.192%
CC(C)(C)c1ccc(OCCCC(=O)NC2CCCCC2)cc1	-11%
O=C(Nc1cccc(C(=O)Nc2cccc(Cl)c2)c1)c1ccc(F)cc1	4.31%
COc1ccc(CN(C)CCc2ccccn2)cc1OCc1ccccc1	-3.41%
COc1cccc(CNc2nc3ccccc3n2C(C)C)c1O	-3.96%
COc1ccc(Nc2nc(N3CCCCC3)nc(N3CCCCC3)n2)c(OC)c1	3%
C=CCSc1nc(=O)c(CC)c(O)n1-c1ccccc1	-1.62%
CC(C)(C)c1ccc(C(=O)Nc2nnc(CCc3ccccc3)s2)cc1	-2.6%
Cc1ccc(S(=O)(=O)NC2=NCN(CCOC(=O)c3ccccc3)CN2)cc1	2.94%
N#C/C(=C/c1cccc(F)c1)c1nc(-c2ccc(Cl)cc2)cs1	3.53%
FC(F)(F)c1cccc(N2CCN(Cc3ccc4c(c3)OCCO4)CC2)c1	-5.65%

Compound	% Inhibition @ 10 uM
CCOc1ccc(C(=O)C2=C(O)C(=O)N(CCN(CC)CC)C2c2ccc(C)cc2)c(C)c1 (stereo not drawn)	-0.178%
O=C(c1ccc(Br)o1)N(Cc1ccccc1)CC1CCC1	-1.44%
O=C(O)c1c(CNCc2cccnc2)c2ccccc2n1Cc1ccccc1F	1.93%
Cc1cc(C)c(C(=O)NCC(=O)c2ccccc2)c(C)c1	5.03%
CCOc1ccc(S(=O)(=O)Nc2ccc(S(=O)(=O)Nc3ccc(C)cc3)cc2)cc1	13.3%
CCOC(=O)N1CCN(Cc2cccc(Br)c2)CC1	1.08%
COc1ccc(C(=O)Nc2c(F)cccc2F)cc1OC	8.82%
Cc1ccc2nc(O)c3cc(C(=O)N4CCN(Cc5ccccc5)CC4)sc3c2c1	-1.66%
Cc1ccc(C2=NN(CCC(=O)NCCC(C)C)C(=O)CC2)cc1	-3.58%
O=C(NCCN1CCOCC1)c1nc(-c2cccnc2)no1	5.56%
CS(=O)(=O)/N=C/N[C@@H](CC1CCCCC1)C(=O)NCC#N	-6.56%
Cc1cc(C(=O)NCc2ccc(-n3cccc3)cc2)c2ccccc2n1	-3.75%
OCC1CCCN(Cc2ccc(F)c(Br)c2)C1 (stereo not drawn)	-6.35%
O=C(/C=C/c1ccccc1Cl)c1ccccn1	0.526%
Cn1ncc2c(NCc3ccccc3Cl)ncnc21	0.0904%
Cc1cccc(-n2cc(-c3ccccc3)c3c(N4CCC5(CC4)OCCO5)ncnc32)c1	-0.438%
N#Cc1cccc(NC(=O)Cc2ccccc2)c1	-0.473%
Cc1ccc2nc3c(O)n(CC(=O)NC4CCCCC4)ncc-3c2c1	1.74%
O=C(N1CCCC1)C(O)(c1ccccc1)c1ccccc1	-0.687%
CC(O)CCC(=O)NCCNC(=O)CCC(C)O (stereo not drawn)	-5.51%
COc1ccc(CN2CCN(Cc3ccc(SC)cc3)CC2)c(OC)c1OC	2.45%
COc1ccc(-c2nnc(NC(=O)c3cccc(C)c3)s2)cc1	-1.25%
CCN(CC)C(=S)NC(=O)/C=C/c1ccco1	1.9%
Cc1ccc(-c2noc(CNC(=O)c3ccco3)n2)cc1	2.14%
CN1CCN(CCNC(=O)c2ccc(-n3cnc4cccnc43)cc2)CC1	-3.84%

— paper PMC6919601, “Identification of Plasmodium dipeptidyl aminopeptidase allosteric inhibitors by high throughput screening” (PLoS ONE, 2019)
